Measurements reported in PubChem BioAssay AID1508623 (National Center for Advancing Translational Sciences (NCATS), 2021).
About 450 (0.94%) of roughly 48,000 compounds were called active. Inconclusive results (about 19%) are left out. Calls come from the whole dose curve; as a rule, active = well fitted inhibition curve with a large enough effect; inconclusive = small, poorly fitted or top-dose-only effect; inactive = no such curve, though single readings can be large or run the other way. Some of the results follow.

Test: Primary qHTS for Identification of Small Molecule Inhibitors of Huntingtin Promoter Activity; note: nearly all actives have a fitted effect of over 50% in size
Conditions: HEK293 HTT promoter firefly luciferase reporter (activity 0% = vehicle and -100% = no light), 24 h; series mostly up to 57.5 µM; activity change, negative = inhibition: at the top concentration
Method in brief: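 Quantitative HTS used concentration series of up to 57.5 uM final on HEK293 luciferase reporter cells, 24 h at 37 degrees C. Readout was Dual-Glo firefly luminescence.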

Activity change, negative = inhibition, inactive:
O=C1c2oc3ccccc3c(=O)c2C(c2cccc(O)c2)N1c1nncs1 (configuration not stated) -11.4%
CCOC(=O)c1c(-c2ccc(C)cc2)csc1NC(=O)c1cc(=O)c2cc(C)ccc2o1 13.6%
O=C(Cn1c(=O)nc(-c2ccccc2)c2ccccc21)NCCc1ccccc1 -2.63%
CC(=O)c1ccc(NC(=O)CN2C(=O)CN(C)C(=O)c3ccccc32)cc1 6.97%
COc1cccc(CNC(=O)C2=C(C)C(=O)OC23CCN(C(C)=O)CC3)c1OC -7.15%
COc1ccc(-c2oc3ncn4nc(COc5cccc(C)c5C)nc4c3c2-c2ccc(OC)cc2)cc1 2.26%
COc1cc(Nc2nc(SCc3ccc(Cl)cc3)nc3ccccc23)cc(OC)c1 -24.5%
CCC(C(=O)NCc1cc(OC)ccc1OC)n1nc(C)c2sc3ccccc3c2c1=O (configuration not stated) -13.1%
COc1cccc(C(=O)N2CCC(C(=O)Nc3cccc(Cl)c3)CC2)c1 -21.2%
CN(C)c1cccc(C(=O)N2CCC(c3c[nH]c4ccccc34)(c3c[nH]c4ccccc34)CC2)c1 -11.3%
O=C(COCc1cc(-c2cccs2)on1)N1CCN(c2ccccc2)CC1 -24.3%
COc1ccccc1C(=O)Nc1ccc2nc(SCCOc3ccccc3C)sc2c1 -11.7%
CC(C)c1ccc(N2C(=O)CSC23C(=O)N(Cc2cccc(F)c2)c2ccccc23)cc1 (configuration not stated) -25.3%
COc1ccc(OC)c(CNC(=O)C2CCCN(c3ncnc4onc(-c5ccc(F)cc5)c34)C2)c1 (configuration not stated) -4.85%
Fc1ccc(NCc2nnc3n2CCCCC3)cc1Cl 11%
COc1ccccc1CNc1nc2c(S(=O)(=O)c3ccc(C)c(C)c3)nnn2c2ccc(Cl)cc12 9.11%
COc1ccc(NC(=O)C(NS(=O)(=O)c2cccc3nsnc23)C(C)C)cc1 (configuration not stated) -10.7% [at 11.5 µM]
CCOC(=O)c1c(NC(=O)c2cc(-c3ccc(Br)cc3)on2)sc(C(C)=O)c1C -8.29% [at 11.5 µM]
COc1ccc(NC(=O)c2cc3ccccc3o2)c(OC)c1 97.5%
O=C(c1ccc(F)cc1)c1cn(Cc2ccccc2)c2cc3c(cc2c1=O)OCO3 11.2%
COc1ccc(C2=CC(c3cc(Br)ccc3F)n3c(nc4ccccc43)N2)cc1 (configuration not stated) 64.9% [at 11.5 µM]
CC1CCCN(c2cc3c(cc2F)c(=O)c(S(=O)(=O)c2cccc(Cl)c2)cn3Cc2ccccc2)C1 (configuration not stated) -7.78%
O=C(COc1ccccc1Cl)Nc1ccc(-c2nc3ccccc3s2)cc1 89%
CC(C)NC(=O)c1ccc(Cn2c(SCc3ccc(F)cc3)nc3cccnc32)cc1 -10.6%
COCc1nnc(NC(=O)c2cc(OC)c(OC)c(OC)c2)s1 1.82%
Cc1ccc(NC(=O)C2CCCN(S(=O)(=O)c3c(C)n[nH]c3C)C2)c(C)c1 (configuration not stated) -14.9%
CCC(C(=O)Nc1cc(C)ccc1C)n1c(=O)c(C(F)(F)F)nc2ccccc21 (configuration not stated) -28.6%
COc1cccc(CNS(=O)(=O)c2cnc(N)nc2)c1 -3.97%
Cc1cc(C)n(-c2nc(C)c(C)c(=O)n2CC(=O)Nc2ccc([N+](=O)[O-])cc2)n1 -20.8%
COc1cc(OC)cc(C(=O)Nc2ccc(-c3nc4ccccc4s3)cc2C)c1 -6.09%
COCC(=O)n1nc(-c2ccco2)nc1NCc1ccccc1Cl 48.9%
Nc1nc2c(ncn2COC(CO)CO)c(=O)[nH]1 6.36%
C=CCc1cccc2cc(-c3nc4ccc(C)cc4[nH]3)c(=O)oc12 70.9%
C[n+]1c2cc(N)ccc2cc2ccc(N)cc21 (tested in a mixture with another compound) -28.8%
COc1ccccc1CNC(=O)CCc1c(C)c2cc3c(C)c(C)oc3cc2oc1=O 6.38%
COc1ccc(CCNC(=O)c2ccc3c(c2)N(Cc2ccc(F)cc2)C(=O)c2ccccc2S3(=O)=O)cc1OC 8.86%
Cc1c(C(=O)Nc2cccc(C(F)(F)F)c2)sc2nc[nH]c(=O)c12 -10.4%
Cc1csc(-c2nnc(Nc3ccc(Oc4ncccc4-c4ccnc(N)n4)cc3)c3ccccc23)c1 -26.7%
CCOC(=O)c1ccc(NC(=O)CCCn2c(=O)c3cccn3c3ccccc32)cc1 6.94%
COc1ccc(NC(=O)c2ccc(NC(=O)N3CCSc4ncccc43)cc2)cc1 -21.9%
COCCn1c(CNC(=O)c2cccc(C)c2)nc2cccnc21 3.67%
COCCNC(=O)C1CCN(Cc2cc3ccccc3n2Cc2ccc(C)cc2)CC1 4.91%
c1ccc2c(CCNc3ccc(Nc4ccncc4)cc3)c[nH]c2c1 -18.3%
O=C(COc1ccc(F)cc1)Nc1nnc(S(=O)(=O)N2CCCC2)s1 -4.65%
COc1ccc(NC(=O)c2nnn(Cc3nc(-c4cc(OC)c(OC)c(OC)c4)oc3C)c2C)cc1Cl -17.4%
COc1ccccc1CNC(=O)c1ccc2[nH]c(C)c(C)c2c1 -3.75%
CCCCNC(=O)C(CC)Sc1nc2ccccc2c(=O)n1Cc1ccco1 (configuration not stated) -16.6%
COCCCNC(=O)Cn1c(=O)n(-c2ccc(C)c(C)c2)c(=O)c2c3c(sc21)CCCCC3 -5.01%
COCCNC(=O)c1sc2ncccc2c1-n1c(C)ccc1C -10.7%
CCC(C)n1c(=O)c2sccc2n2c(CCCC(=O)NCc3ccccc3Cl)nnc12 (configuration not stated) -18.8%
Cc1ccc(C(=O)c2sc(Nc3ccccc3)c(S(=O)(=O)c3ccccc3)c2N)c(C)c1 -19.5%
CCOC(=O)c1cccc(NC(=O)Cn2c(=O)c3cccn3c3ccccc32)c1 -8.89%
Cc1cc(C)n2nc(CNC(=O)c3c(F)cccc3F)nc2n1 3.31%
NCCCCCC(=O)O
Cc1ccc(-c2cn3cccnc3n2)cc1NC(=O)Nc1ccc(F)cc1 4.26%
CC(C)(C)OC(=O)N1CCC(c2c(C(=O)N3CCN(c4ccccn4)CC3)cnn2-c2ccc(F)cc2)CC1 -24.8%
COc1ccc2c(c1)c(=O)c(S(=O)(=O)c1ccc(F)cc1)cn2Cc1ccccc1Cl -16.6%
COc1cccc2c(C)cc3nnc(SCC(=O)Nc4ccc(C)cc4)n3c12 3.6%
O=C(Cn1ncc2c1-c1ccccc1OC2)N1CCN(c2ccccc2)CC1 -19.1%
COCCNC(=O)CN1C(=O)c2cccnc2Sc2ccccc21 -12.6%
CCCCOc1ccc(C(=O)N2CCCCC2CCN2CCOCC2)cc1 (configuration not stated) -6.24%
Cc1cc(Cl)ccc1OCC(=O)N(Cc1sccc1C)C1CCS(=O)(=O)C1 (configuration not stated) 18.4%
